Fold change from hIL-2 (NK-92), pSTAT5 fixed conc. and Fold change from hIL-2 (TF1 + IL-2Rβ), pSTAT5 fixed conc. data for nine molecules are collected here from patent US20240076343A1.

The target in assay [1] is high-affinity hIL-2 receptor (IL-2Rαβγ) (human) (UniProt P01589). Description: cell-based or functional assay.
Assay [2] has as its target intermediate affinity hIL-2 receptor complex (IL-2Rβγ) (human) (UniProt P14784). Description: cell-based or functional assay.
Chain of UniProt P14784 (P14784 27-551, chain 1 of 2): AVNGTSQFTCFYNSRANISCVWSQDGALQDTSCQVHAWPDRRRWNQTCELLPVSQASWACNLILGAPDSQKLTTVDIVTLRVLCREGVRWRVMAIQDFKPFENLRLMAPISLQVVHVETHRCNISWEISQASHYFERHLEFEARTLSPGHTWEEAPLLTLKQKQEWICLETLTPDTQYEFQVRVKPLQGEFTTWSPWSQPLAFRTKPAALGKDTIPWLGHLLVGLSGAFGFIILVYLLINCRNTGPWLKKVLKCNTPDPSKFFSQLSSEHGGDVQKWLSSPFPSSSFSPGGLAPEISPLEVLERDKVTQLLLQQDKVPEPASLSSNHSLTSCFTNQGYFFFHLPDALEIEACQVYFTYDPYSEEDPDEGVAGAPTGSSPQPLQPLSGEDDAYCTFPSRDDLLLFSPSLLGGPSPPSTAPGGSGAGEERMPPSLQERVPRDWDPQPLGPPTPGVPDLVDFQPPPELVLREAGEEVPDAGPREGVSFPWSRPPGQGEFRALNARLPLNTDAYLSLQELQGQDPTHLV
Chain of UniProt P14784 (chain, as listed by the source, chain 2 of 2): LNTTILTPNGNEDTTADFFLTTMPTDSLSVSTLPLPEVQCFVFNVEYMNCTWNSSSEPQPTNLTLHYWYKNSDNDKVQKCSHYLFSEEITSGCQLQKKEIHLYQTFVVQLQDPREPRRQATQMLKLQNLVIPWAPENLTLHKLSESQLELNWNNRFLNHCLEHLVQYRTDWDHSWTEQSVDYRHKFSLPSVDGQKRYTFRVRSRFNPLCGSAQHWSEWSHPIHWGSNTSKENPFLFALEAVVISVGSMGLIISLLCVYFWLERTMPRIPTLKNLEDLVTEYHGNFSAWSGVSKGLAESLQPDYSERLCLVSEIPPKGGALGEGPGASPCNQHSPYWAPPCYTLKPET

Chain of UniProt P01589 (P01589 22-272, chain 1 of 3): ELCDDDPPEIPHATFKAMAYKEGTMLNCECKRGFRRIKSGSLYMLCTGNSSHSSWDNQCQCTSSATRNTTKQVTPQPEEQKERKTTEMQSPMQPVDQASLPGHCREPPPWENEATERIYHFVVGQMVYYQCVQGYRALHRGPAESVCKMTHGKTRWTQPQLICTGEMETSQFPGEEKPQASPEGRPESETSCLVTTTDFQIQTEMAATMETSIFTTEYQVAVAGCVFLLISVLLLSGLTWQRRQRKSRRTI
Chain of UniProt P01589 (chain, as listed by the source, chain 2 of 3): as the sequence (P14784 27-551, chain 1 of 2) above
Chain of UniProt P01589 (chain, as listed by the source, chain 3 of 3): as the sequence (chain, as listed by the source, chain 2 of 2) above

B1: 1H3-hIgG1-L6-hIL-2 (I92D/F42S) (protein)
heavy: EVQLVESGGGLVQPGRSLKLSCAVSGFTFSDYAMAWVRQAPKKGLEWVATISYDGSRTYYRDSVKGRFTISRDNAKITLYLQMDSLRSEDTATYYCARHGSGYFDYWGQGVMVTVSS[not shown - about 450 residues with a human IgG1 Fc and changes]
light: DTVLTQSPALAVSPGERVTISCRASESVRTGVHWYQQKPGQQPKLLIYGASNLESGVPARFSGSGSGTDFTLTIDPVEADDTATYFCQQSWNDPFTFGSGTKLEIKRTVAAPSVFIFPPSDEQLKSGTASVVCLLNNFYPREAKVQWKVDNALQSGNSQESVTEQDSKDSTYSLSSTLTLSKADYEKHKVYACEVTHQGLSSPVTKSFNRGEC
With B1, the Fold change from hIL-2 (NK-92), pSTAT5 fixed conc. in assay [1] was found to be 30 fold. Moreover, the Fold change from hIL-2 (TF1 + IL-2Rβ), pSTAT5 fixed conc. in assay [2] turned out to be 5 fold.

B2: 1H3-hIgG1-L6-hIL-2 (I92D/Y45P) (protein)
heavy: EVQLVESGGGLVQPGRSLKLSCAVSGFTFSDYAMAWVRQAPKKGLEWVATISYDGSRTYYRDSVKGRFTISRDNAKITLYLQMDSLRSEDTATYYCARHGSGYFDYWGQGVMVTVSS[not shown - about 450 residues with a human IgG1 Fc and changes]
light: DTVLTQSPALAVSPGERVTISCRASESVRTGVHWYQQKPGQQPKLLIYGASNLESGVPARFSGSGSGTDFTLTIDPVEADDTATYFCQQSWNDPFTFGSGTKLEIKRTVAAPSVFIFPPSDEQLKSGTASVVCLLNNFYPREAKVQWKVDNALQSGNSQESVTEQDSKDSTYSLSSTLTLSKADYEKHKVYACEVTHQGLSSPVTKSFNRGEC
In assay [1], B2 showed a Fold change from hIL-2 (NK-92), pSTAT5 fixed conc. of 28 fold. Also, the Fold change from hIL-2 (TF1 + IL-2Rβ), pSTAT5 fixed conc. in assay [2] is 4 fold.

B3: 1H3-hIgG1-L6-hIL-2 (I92D/Y45I) (protein)
heavy: EVQLVESGGGLVQPGRSLKLSCAVSGFTFSDYAMAWVRQAPKKGLEWVATISYDGSRTYYRDSVKGRFTISRDNAKITLYLQMDSLRSEDTATYYCARHGSGYFDYWGQGVMVTVSS[not shown - about 450 residues with a human IgG1 Fc and changes]
light: DTVLTQSPALAVSPGERVTISCRASESVRTGVHWYQQKPGQQPKLLIYGASNLESGVPARFSGSGSGTDFTLTIDPVEADDTATYFCQQSWNDPFTFGSGTKLEIKRTVAAPSVFIFPPSDEQLKSGTASVVCLLNNFYPREAKVQWKVDNALQSGNSQESVTEQDSKDSTYSLSSTLTLSKADYEKHKVYACEVTHQGLSSPVTKSFNRGEC
Regarding B3, the Fold change from hIL-2 (NK-92), pSTAT5 fixed conc. in assay [1] worked out at 20 fold. Also, the Fold change from hIL-2 (TF1 + IL-2Rβ), pSTAT5 fixed conc. in assay [2] came out at 4 fold.

B4: 1H3-hIgG1-L6-hIL-2 (I92D/Y45E) (protein)
heavy: EVQLVESGGGLVQPGRSLKLSCAVSGFTFSDYAMAWVRQAPKKGLEWVATISYDGSRTYYRDSVKGRFTISRDNAKITLYLQMDSLRSEDTATYYCARHGSGYFDYWGQGVMVTVSS[not shown - about 450 residues with a human IgG1 Fc and changes]
light: DTVLTQSPALAVSPGERVTISCRASESVRTGVHWYQQKPGQQPKLLIYGASNLESGVPARFSGSGSGTDFTLTIDPVEADDTATYFCQQSWNDPFTFGSGTKLEIKRTVAAPSVFIFPPSDEQLKSGTASVVCLLNNFYPREAKVQWKVDNALQSGNSQESVTEQDSKDSTYSLSSTLTLSKADYEKHKVYACEVTHQGLSSPVTKSFNRGEC
For the molecule B4, the Fold change from hIL-2 (NK-92), pSTAT5 fixed conc. in assay [1] turned out to be 27 fold. In assay [2], the Fold change from hIL-2 (TF1 + IL-2Rβ), pSTAT5 fixed conc. stood at 4 fold.

B5: 1H3-hIgG1-L6-hIL-2 (I92D/Y45L) (protein)
heavy: EVQLVESGGGLVQPGRSLKLSCAVSGFTFSDYAMAWVRQAPKKGLEWVATISYDGSRTYYRDSVKGRFTISRDNAKITLYLQMDSLRSEDTATYYCARHGSGYFDYWGQGVMVTVSS[not shown - about 450 residues with a human IgG1 Fc and changes]
light: DTVLTQSPALAVSPGERVTISCRASESVRTGVHWYQQKPGQQPKLLIYGASNLESGVPARFSGSGSGTDFTLTIDPVEADDTATYFCQQSWNDPFTFGSGTKLEIKRTVAAPSVFIFPPSDEQLKSGTASVVCLLNNFYPREAKVQWKVDNALQSGNSQESVTEQDSKDSTYSLSSTLTLSKADYEKHKVYACEVTHQGLSSPVTKSFNRGEC
With B5, the Fold change from hIL-2 (NK-92), pSTAT5 fixed conc. in assay [1] is 5 fold. Moreover, in assay [2], the Fold change from hIL-2 (TF1 + IL-2Rβ), pSTAT5 fixed conc. was 3 fold.

B6: 1H3-hIgG1-L6-hIL-2 (I92D/Y45D) (protein)
heavy: EVQLVESGGGLVQPGRSLKLSCAVSGFTFSDYAMAWVRQAPKKGLEWVATISYDGSRTYYRDSVKGRFTISRDNAKITLYLQMDSLRSEDTATYYCARHGSGYFDYWGQGVMVTVSS[not shown - about 450 residues with a human IgG1 Fc and changes]
light: DTVLTQSPALAVSPGERVTISCRASESVRTGVHWYQQKPGQQPKLLIYGASNLESGVPARFSGSGSGTDFTLTIDPVEADDTATYFCQQSWNDPFTFGSGTKLEIKRTVAAPSVFIFPPSDEQLKSGTASVVCLLNNFYPREAKVQWKVDNALQSGNSQESVTEQDSKDSTYSLSSTLTLSKADYEKHKVYACEVTHQGLSSPVTKSFNRGEC
For the molecule B6, the Fold change from hIL-2 (NK-92), pSTAT5 fixed conc. in assay [1] was found to be 29 fold. The Fold change from hIL-2 (TF1 + IL-2Rβ), pSTAT5 fixed conc. in assay [2] is 5 fold.

B7: 1H3-hIgG1-L6-hIL-2 (I92D/Y45N) (protein)
heavy: EVQLVESGGGLVQPGRSLKLSCAVSGFTFSDYAMAWVRQAPKKGLEWVATISYDGSRTYYRDSVKGRFTISRDNAKITLYLQMDSLRSEDTATYYCARHGSGYFDYWGQGVMVTVSS[not shown - about 450 residues with a human IgG1 Fc and changes]
light: DTVLTQSPALAVSPGERVTISCRASESVRTGVHWYQQKPGQQPKLLIYGASNLESGVPARFSGSGSGTDFTLTIDPVEADDTATYFCQQSWNDPFTFGSGTKLEIKRTVAAPSVFIFPPSDEQLKSGTASVVCLLNNFYPREAKVQWKVDNALQSGNSQESVTEQDSKDSTYSLSSTLTLSKADYEKHKVYACEVTHQGLSSPVTKSFNRGEC
In assay [1], B7 showed a Fold change from hIL-2 (NK-92), pSTAT5 fixed conc. of 4 fold. In assay [2], the Fold change from hIL-2 (TF1 + IL-2Rβ), pSTAT5 fixed conc. came to 3 fold.

B8: 1H3-hIgG1-L6-hIL-2 (I92D/Y45T) (protein)
heavy: EVQLVESGGGLVQPGRSLKLSCAVSGFTFSDYAMAWVRQAPKKGLEWVATISYDGSRTYYRDSVKGRFTISRDNAKITLYLQMDSLRSEDTATYYCARHGSGYFDYWGQGVMVTVSS[not shown - about 450 residues with a human IgG1 Fc and changes]
light: DTVLTQSPALAVSPGERVTISCRASESVRTGVHWYQQKPGQQPKLLIYGASNLESGVPARFSGSGSGTDFTLTIDPVEADDTATYFCQQSWNDPFTFGSGTKLEIKRTVAAPSVFIFPPSDEQLKSGTASVVCLLNNFYPREAKVQWKVDNALQSGNSQESVTEQDSKDSTYSLSSTLTLSKADYEKHKVYACEVTHQGLSSPVTKSFNRGEC
B8: the Fold change from hIL-2 (NK-92), pSTAT5 fixed conc. in assay [1] amounted to 28 fold. For the same molecule, the Fold change from hIL-2 (TF1 + IL-2Rβ), pSTAT5 fixed conc. in assay [2] was 4 fold.

B9: 1H3-hIgG1-L6-hIL-2 (I92D/Y45H) (protein)
heavy: EVQLVESGGGLVQPGRSLKLSCAVSGFTFSDYAMAWVRQAPKKGLEWVATISYDGSRTYYRDSVKGRFTISRDNAKITLYLQMDSLRSEDTATYYCARHGSGYFDYWGQGVMVTVSS[not shown - about 450 residues with a human IgG1 Fc and changes]
light: DTVLTQSPALAVSPGERVTISCRASESVRTGVHWYQQKPGQQPKLLIYGASNLESGVPARFSGSGSGTDFTLTIDPVEADDTATYFCQQSWNDPFTFGSGTKLEIKRTVAAPSVFIFPPSDEQLKSGTASVVCLLNNFYPREAKVQWKVDNALQSGNSQESVTEQDSKDSTYSLSSTLTLSKADYEKHKVYACEVTHQGLSSPVTKSFNRGEC
In assay [1], B9 gave a Fold change from hIL-2 (NK-92), pSTAT5 fixed conc. of 7 fold. Further, the Fold change from hIL-2 (TF1 + IL-2Rβ), pSTAT5 fixed conc. in assay [2] was 3 fold.
